Assay results taken from the RNAGym collection of RNA variant scans (doi:10.1093/nar/gkz1192).
The source gives no read counts; variants with many changes may rest on few reads.

B1: CPEB3 Ribozyme (parent)
chain: UAACAGGGGGCCACAGCAGAAGCGUUCACGUCGCAGCCCCUGUCAGAUUCUGGUGAAUCUGCGAAUUCUGCUGUAUAUCUC

Variants of: B1
Experiment: self-cleavage, relative activity (ratio to wild type); higher = more cleavage; in vitro, sequencing
Procedure, shortened: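 Libraries of CPEB3 self-cleaving ribozyme mutants came from rounds of error-prone PCR and carried barcodes, which DNA sequencing matched to variants. In vitro transcription used T7 RNA polymerase at 37°C for 5 hours, with a further 15 min in DNase I before EDTA stopped the reaction; the ribozymes cleaved during both steps. The RNA was reverse transcribed with template switching and sequenced on Illumina. Relative activity is the cleaved/total read fraction of a variant divided by that of the unmutated ribozyme, averaged over three batches with at least 5 reads.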

Question: With A65G U67C C81U as the variant, how does the self-cleavage read?
Answer: Its self-cleavage is 0.16.

Question: For A65G U69C U72A, which self-cleavage is on record?
Answer: Its self-cleavage is 0.54.

Question: For U67A U72C U80C, which self-cleavage is on record?
Answer: Its self-cleavage is 0.35.

Question: With G70C C71A U72C as the variant, how does the self-cleavage read?
Answer: The self-cleavage was 0.3.

Question: Which self-cleavage does the source give for U67A U74C U76A here?
Answer: The self-cleavage was 1.1.

Question: Which self-cleavage does the source give for U72C U76A A77U here?
Answer: Its self-cleavage is 1.04.

Question: With A64U A65G U66C as the variant, how does the self-cleavage read?
Answer: The self-cleavage was 0.18.

Question: Which self-cleavage does the source give for U72C U74C U78A here?
Answer: The self-cleavage was 1.41.

Question: Which self-cleavage does the source give for A64U U80C C81A here?
Answer: The self-cleavage was 0.27.

Question: For U69C A77G U80A, which self-cleavage is on record?
Answer: Its self-cleavage is 0.96.

Question: With U67C U69C U78C as the variant, how does the self-cleavage read?
Answer: The self-cleavage was 0.39.

Question: For A64G U76C C79U, which self-cleavage is on record?
Answer: The self-cleavage was 1.15.

Question: Which self-cleavage does the source give for C71A U72C U78A here?
Answer: The self-cleavage was 0.33.

Question: Which self-cleavage does the source give for A65G U72C U74C here?
Answer: The self-cleavage was 0.75.

Question: With A64U G70A U80G as the variant, how does the self-cleavage read?
Answer: Its self-cleavage is 0.29.

Question: With A65G U66A U67A as the variant, how does the self-cleavage read?
Answer: Its self-cleavage is 0.21.

Question: Which self-cleavage does the source give for A64G U76A A77G here?
Answer: Its self-cleavage is 0.73.

Question: For U69A U72C U80C, which self-cleavage is on record?
Answer: Its self-cleavage is 0.45.

Question: With A64U A65U U76C as the variant, how does the self-cleavage read?
Answer: The self-cleavage was 0.13.

Question: For A64U A65G U80C, which self-cleavage is on record?
Answer: Its self-cleavage is 0.19.

Question: With G70A U76A U80C as the variant, how does the self-cleavage read?
Answer: Its self-cleavage is 0.74.

Question: With U66C C68G U69A U74A as the variant, how does the self-cleavage read?
Answer: The self-cleavage was 0.11.

Question: Which self-cleavage does the source give for U66C A75U C79A here?
Answer: The self-cleavage was 0.64.

Question: For U67C U76A U80C, which self-cleavage is on record?
Answer: Its self-cleavage is 0.32.

Question: For A65C C68G U72C, which self-cleavage is on record?
Answer: Its self-cleavage is 0.14.

Question: With U67A U69C C79A as the variant, how does the self-cleavage read?
Answer: Its self-cleavage is 0.21.

Question: Which self-cleavage does the source give for U67C U72C U78C here?
Answer: Its self-cleavage is 0.27.

Question: Which self-cleavage does the source give for A64G U72C U74C here?
Answer: The self-cleavage was 1.02.

Question: With U66C U69C U78C as the variant, how does the self-cleavage read?
Answer: Its self-cleavage is 0.47.

Question: For U72C A77U C81A, which self-cleavage is on record?
Answer: Its self-cleavage is 1.27.

Question: With U72C A75G U76C as the variant, how does the self-cleavage read?
Answer: Its self-cleavage is 1.06.

Question: Which self-cleavage does the source give for U69C U72A U80C here?
Answer: The self-cleavage was 0.51.

Question: Which self-cleavage does the source give for C68G A77G U80C here?
Answer: Its self-cleavage is 0.46.

Question: With A64U U69A U72C U78C as the variant, how does the self-cleavage read?
Answer: The self-cleavage was 0.26.

Question: For U66C G73A U80A, which self-cleavage is on record?
Answer: Its self-cleavage is 1.13.

Question: For C68U U72G A77U, which self-cleavage is on record?
Answer: The self-cleavage was 0.51.

Question: With U67A U69A A75G as the variant, how does the self-cleavage read?
Answer: Its self-cleavage is 0.19.

Question: Which self-cleavage does the source give for A65U U67C U78C here?
Answer: The self-cleavage was 0.4.

Question: For A65G U67C A77C, which self-cleavage is on record?
Answer: Its self-cleavage is 0.19.

Question: For U69G A75C A77C, which self-cleavage is on record?
Answer: Its self-cleavage is 0.82.

Question: For A65U U67A U69A U72A, which self-cleavage is on record?
Answer: Its self-cleavage is 0.23.

Question: Which self-cleavage does the source give for U66C U78C C81U here?
Answer: Its self-cleavage is 0.32.

Question: Which self-cleavage does the source give for U72C U78C C79G here?
Answer: Its self-cleavage is 1.26.

Question: For U66A U74C U78C, which self-cleavage is on record?
Answer: The self-cleavage was 0.85.

Question: Which self-cleavage does the source give for U69C U72C A77C here?
Answer: Its self-cleavage is 0.37.

Question: With A65U U66C U72G as the variant, how does the self-cleavage read?
Answer: Its self-cleavage is 0.45.

Question: With A65U U72G U76C as the variant, how does the self-cleavage read?
Answer: Its self-cleavage is 0.54.

Question: For U69A U72G A75G, which self-cleavage is on record?
Answer: Its self-cleavage is 0.45.

Question: Which self-cleavage does the source give for A65U U67C U72C here?
Answer: Its self-cleavage is 0.34.

Question: Which self-cleavage does the source give for G70A U72C U80A here?
Answer: The self-cleavage was 0.52.

Question: For U67C U69A G70A, which self-cleavage is on record?
Answer: Its self-cleavage is 0.25.

Question: For U72A A77U C79U, which self-cleavage is on record?
Answer: The self-cleavage was 1.26.

Question: With U66C U67C C71A A75C U78C as the variant, how does the self-cleavage read?
Answer: The self-cleavage was 0.33.

Question: With U72C U76C U80C as the variant, how does the self-cleavage read?
Answer: Its self-cleavage is 1.17.

Question: Which self-cleavage does the source give for U69A U72A U74A here?
Answer: The self-cleavage was 0.17.

Question: For A64G U74A U78G, which self-cleavage is on record?
Answer: Its self-cleavage is 1.16.

Question: Which self-cleavage does the source give for A77U U78C U80C here?
Answer: Its self-cleavage is 0.72.

Question: For U66A U67C C71G U72A, which self-cleavage is on record?
Answer: Its self-cleavage is 0.32.

Question: With A64G U76A U80C as the variant, how does the self-cleavage read?
Answer: Its self-cleavage is 0.98.

Question: Which self-cleavage does the source give for A65G A77G U80A here?
Answer: The self-cleavage was 0.44.

Question: Which self-cleavage does the source give for A64G U78C C79G U80C here?
Answer: Its self-cleavage is 0.97.

Question: For A65G U69A U72G, which self-cleavage is on record?
Answer: Its self-cleavage is 0.2.

Question: For A64G U78C C79A, which self-cleavage is on record?
Answer: Its self-cleavage is 0.76.

Question: Which self-cleavage does the source give for U74A C79A U80C here?
Answer: The self-cleavage was 1.3.

Question: Which self-cleavage does the source give for U72C U76C U78A here?
Answer: The self-cleavage was 1.19.

Question: With A65U U66C U80C as the variant, how does the self-cleavage read?
Answer: The self-cleavage was 0.26.

Question: Which self-cleavage does the source give for U67G U72A A75G here?
Answer: The self-cleavage was 0.41.

Question: For A64U A65G U67C, which self-cleavage is on record?
Answer: Its self-cleavage is 0.36.

Question: With A65G U67C U72A A75G as the variant, how does the self-cleavage read?
Answer: Its self-cleavage is 0.2.

Question: With U66C U72C U80A as the variant, how does the self-cleavage read?
Answer: Its self-cleavage is 0.3.
